Results as given in PubChem BioAssay AID504339 (National Center for Advancing Translational Sciences (NCATS), 2011).
Screen size: about 390,000 compounds; about 17,000 (4.4%) were called active. Inconclusive means that the source gave no clear call. Such entries were picked first, then a sample of the others. The call rests on the fitted dose curve; in most records, active means well fitted inhibition curve with a large enough effect; inconclusive means small, poorly fitted or top-dose-only effect; inactive means no such curve, though single readings can be large or run the other way. Where the call is inconclusive, the potency comes from a doubtful curve fit.

Each compound was assayed against Lysine-specific demethylase 4A (Homo sapiens) (UniProt O75164) (assay: qHTS Assay for Inhibitors of JMJD2A-Tudor Domain). Conditions: AlphaScreen JMJD2A-Tudor / H3K4me3 peptide binding; series mostly up to 114 µM.
Further: nearly all actives have a fitted effect of over 50% in size.
Potency means the concentration at half of the fitted maximal effect; tags describe the fitted curve by direction and shape.

UniProt O75164, sequence (O75164 whole entry, looked up, the tested form may be a part): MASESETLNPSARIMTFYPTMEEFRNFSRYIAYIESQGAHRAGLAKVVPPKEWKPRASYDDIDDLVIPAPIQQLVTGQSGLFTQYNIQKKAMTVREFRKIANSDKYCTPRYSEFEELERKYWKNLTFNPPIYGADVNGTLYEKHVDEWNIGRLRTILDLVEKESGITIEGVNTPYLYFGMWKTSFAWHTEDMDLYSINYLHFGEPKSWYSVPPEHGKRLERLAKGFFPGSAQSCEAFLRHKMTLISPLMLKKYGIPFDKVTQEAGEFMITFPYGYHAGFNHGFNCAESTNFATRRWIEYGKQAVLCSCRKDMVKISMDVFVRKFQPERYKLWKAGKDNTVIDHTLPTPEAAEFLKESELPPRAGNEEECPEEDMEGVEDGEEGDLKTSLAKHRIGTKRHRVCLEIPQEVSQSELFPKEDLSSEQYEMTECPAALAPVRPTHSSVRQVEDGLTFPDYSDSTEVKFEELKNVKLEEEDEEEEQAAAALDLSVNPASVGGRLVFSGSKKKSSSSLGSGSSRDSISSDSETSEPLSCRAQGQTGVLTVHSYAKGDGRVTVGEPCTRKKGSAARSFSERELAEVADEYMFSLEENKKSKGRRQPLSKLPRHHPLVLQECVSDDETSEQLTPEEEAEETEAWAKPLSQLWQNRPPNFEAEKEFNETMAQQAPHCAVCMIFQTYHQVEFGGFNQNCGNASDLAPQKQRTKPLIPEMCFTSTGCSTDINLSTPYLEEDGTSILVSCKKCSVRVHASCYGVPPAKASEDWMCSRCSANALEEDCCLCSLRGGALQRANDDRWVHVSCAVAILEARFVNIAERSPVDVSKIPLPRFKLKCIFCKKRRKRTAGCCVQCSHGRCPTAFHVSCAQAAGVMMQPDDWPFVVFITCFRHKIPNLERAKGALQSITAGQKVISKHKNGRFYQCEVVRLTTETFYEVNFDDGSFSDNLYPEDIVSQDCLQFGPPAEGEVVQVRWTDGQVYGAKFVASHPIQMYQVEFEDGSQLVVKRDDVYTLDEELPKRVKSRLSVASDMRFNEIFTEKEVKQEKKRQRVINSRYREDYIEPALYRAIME

Row | Compound | Potency
1 | S=C(Nc1ccc(Nc2ccccc2)cc1)Nc1ccccn1 | active: 20 µM
2 | CCCCCn1c(N2CCN(c3cccc(Cl)c3)CC2)nc2c1c(=O)[nH]c(=O)n2C | inconclusive: 20 µM [inhibitor, full curve]
3 | CC1CCCCC1NC(=O)c1cccc(S(=O)(=O)N2CCN(C)CC2)c1 (configuration not stated) | inactive
4 | C(=N\N1CCN(C2c3ccccc3-c3ccccc32)CC1)/c1ccncc1 | active: 44.7 µM
5 | Cc1cc2c([nH]c3ccccc32)c2c1OC(C)(C)C=C2 | inconclusive: 56.2 µM [inhibitor, partial curve]
6 | C=CCn1c(SCc2nc3ccccc3[nH]2)nnc1-c1ccccn1 | inconclusive: 89.1 µM [inhibitor, single point]
7 | CCN=c1scc(C)n1/N=C/c1cc(Br)c(O)c(OC)c1 | active: 79.4 µM
8 | COc1cccc(NC(=S)N/N=C2\CC(C)(C)Oc3ccc(O)cc32)c1 | inconclusive: 44.7 µM [inhibitor, partial curve]
9 | Cc1ccccc1-c1noc(-c2ccc(NCc3ccco3)c([N+](=O)[O-])c2)n1 | inconclusive: 89.1 µM [inhibitor, single point]
10 | CCOc1ncccc1C(=O)N1CCN(c2cc(Cl)ccc2C)CC1 | active: 50.1 µM
11 | Cc1c(O)ccoc1=O | active: 28.2 µM
12 | CN1C(=O)C(O)(CC(=O)c2ccc(F)cc2)c2cc(Br)ccc21 (configuration not stated) | inconclusive: 100 µM [inhibitor, partial curve]
13 | N#Cc1ccc(CN2CCN(C(=O)CNC(=O)Cc3ccccc3)CC2)cc1 | inactive
14 | O=C1CC(N2CCN(S(=O)(=O)c3ccccc3F)CC2)C(=O)N1c1ccccc1F (configuration not stated) | active: 15.8 µM
15 | COc1ccc(CNC(=O)COC(=O)CCn2c(C)csc2=O)cc1OC | inactive
16 | O=C(CNCc1ccco1)Nc1ccccc1-n1cccc1 | inconclusive: 79.4 µM [inhibitor, partial curve]
17 | CCn1c(COc2ccc(C)cc2)nnc1SCC(=O)Nc1ccc2c(c1)OCCO2 | inactive
18 | COc1cc(/C=C2/C(=N)N3N=C(C(C)C)SC3=NC2=O)ccc1OS(=O)(=O)c1ccccc1 | inactive
19 | CCN1C(=O)[C@@H]2C(C(=O)c3cnccn3)=NN[C@@H]2C1=O | active: 44.7 µM
20 | COC(=O)C1=C(C(=O)OC)[C@@H]2N(C)c3ccccc3[C@@]23C[C@@H](C(=O)OC)N(C(=O)C2CCC2)C3=N1 | inconclusive: 56.2 µM [inhibitor, partial curve]
21 | CCOc1ccc(CCNC(=O)c2nn(C)c3c2CSc2ccccc2-3)cc1 | inactive
22 | CC[C@]12c3[nH]c4ccc(OC)cc4c3CCN1C(=O)C(CC(=O)NC/C=C(\C)CCC=C(C)C)C[C@@H]2C(=O)N1CCN(C(=O)c2ccco2)CC1 (some centres not stated) | inactive
